Test results as given in PubChem BioAssay AID995 (National Center for Advancing Translational Sciences (NCATS), 2007).
Screen size: about 72,000 compounds; about 710 (0.99%) were called active. This list was built around the results that the source calls inconclusive (neither active nor inactive); the mix of calls is not that of the screen. Calls follow the shape of the dose curve; as a rule, active = well fitted inhibition curve with a large enough effect; inconclusive = small, poorly fitted or top-dose-only effect; inactive = no such curve, though single readings can be large or run the other way. No potency is given beside an inconclusive call; the fits are too rough.

Test: qHTS Assay for Inhibitors of the ERK Signaling Pathway using a Homogeneous Screening Assay; also: nearly all actives have a fitted effect of over 55% in size
Conditions: HEK293-V1b, vasopressin-stimulated pERK AlphaScreen; activity, negative = inhibition: at 57.5 µM (top of the series) unless noted
Outline: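 Overnight-seeded V1b-HEK293 cells in 1% FBS got compound, then vasopressin (25 nM final, 5 min, 37C), then lysis buffer. AlphaScreen detection of phospho-ERK; activity normalized to basal and full-stimulation controls.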
% is scaled to controls: 0 for no effect and ±100 for the full control effect; potency is read from the fitted curve at half-maximal effect; tags tell the direction and shape of the fitted curve.

| SMILES | Potency | activity, negative = inhibition |
| --- | --- | --- |
| C#CCNc1nc(C)nc2c1nnn2Cc1ccccc1F | inconclusive [inhibitor, partial curve] |  |
| CCc1nnc(SCc2cn3c(C)cc(C)nc3n2)n1N | inactive |  |
| Cc1cc(N2CCCC2=O)cc(C)c1S(=O)(=O)NCCOc1ccccc1 | inconclusive [inhibitor, partial curve, poor fit] |  |
| O=C(NCc1ccco1)c1cc2c(s1)CSC2 | inconclusive [inhibitor, single point] |  |
| O=C(CN1C(=O)c2cccc3cccc1c23)NCc1ccc2c(c1)OCO2 | inactive |  |
| CCC1Oc2ccc(C)cc2N(CC(=O)NCCc2ccc(OC)c(OC)c2)C1=O (configuration not stated) | inconclusive [inhibitor, full curve, poor fit] |  |
| N#Cc1cccc(-c2nccc(-n3ccnc3)n2)c1 | inconclusive [inhibitor, partial curve] |  |
| CN(C)c1ccc(C(=C2C=CC(=[N+](C)C)C=C2)c2ccccc2)cc1 | active: 12.6 µM |  |
| C/C(Cl)=C/CSc1nc2c(c(=O)[nH]c(=O)n2C)n1C(C)C | inactive |  |
| Cc1ccc(NC(=O)c2ccc(F)c(S(=O)(=O)N3CCOCC3)c2)cc1F | inconclusive [inhibitor, single point] |  |
| O=C1CN(C(=O)OCc2ccccc2)c2ccccc2N1 | inconclusive [inhibitor, partial curve, poor fit] |  |
| O=C(Nc1cccc(NC(=O)c2ccco2)c1)c1ccc2c(c1)OCO2 | inactive |  |
| COc1ccc(CCCO[C@@H](Cn2ccnc2)c2ccc(OC)cc2)cc1 | inconclusive [inhibitor, partial curve, poor fit] |  |
| NC(N)=NCCCCN=C(N)N | inactive |  |
| O=C(CN(CC1CCCO1)C(=O)CCC(=O)Nc1nccs1)NCc1ccc2c(c1)OCO2 (configuration not stated) | inconclusive [inhibitor, full curve, poor fit] |  |
| O=C(c1cccc(F)c1)N1CCN(C(=O)c2cc(-c3ccc(Cl)cc3Cl)on2)CC1 | inconclusive [inhibitor, single point] |  |
| CCOC(=O)c1c(C)c(C(=O)NCc2ccc3c(c2)OCO3)c(C)n1C | inconclusive [inhibitor, single point] |  |
| Cn1c(=O)[nH]c(=O)c2c1nc(Br)n2CCOc1ccccc1 | inconclusive [inhibitor, single point] |  |
| O=C1c2oc3ccc(Cl)cc3c(=O)c2C(c2cccc(Br)c2)N1CCO (configuration not stated) | inactive |  |
| Cc1ccc(C2C3=C(CC(C)(C)CC3=O)NC3=C2C(=O)CC(C)(C)C3)o1 | inactive |  |
| COc1cc(C(=O)Nc2ccc(N(C)C)cc2)cc(OC)c1OC | inconclusive [inhibitor, single point] |  |
| COc1ccc(C2c3c(-c4cc(Cl)c(C)cc4O)n[nH]c3C(=O)N2Cc2cccnc2)cc1OC (configuration not stated) | inconclusive [inhibitor, single point] |  |
| CC(C)(C)OC(=O)N1CC(O)CC1C(=O)OCC(=O)c1ccc(Cl)cc1 (configuration not stated) | inconclusive [inhibitor, partial curve] |  |
| Cc1cccc(N2C(=O)C3C4C=CC(C4)C3C2=O)c1 (configuration not stated) | inactive |  |

| SMILES | Potency | activity, negative = inhibition |
| --- | --- | --- |
| CCOc1ccc(-c2cc(CCCC(=O)NCc3cccnc3)no2)cc1 | active: 12.6 µM |  |
| CN1/C(=C\C(=O)COc2ccc3c(c2)OCO3)C(C)(C)c2ccccc21 | inconclusive [inhibitor, single point] |  |
| CCOc1ccc(C2CC(c3cccc(OC)c3)Nc3ncnn32)cc1 (configuration not stated) | inconclusive [inhibitor, single point] |  |
| CCO[Si](CCCN)(OCC)OCC | inactive |  |
| COc1ccc(-c2nc(CSCC(=O)N3CCN(c4cccc(C)c4)C(C)C3)c(C)o2)cc1OC (configuration not stated) | inconclusive [inhibitor, single point] |  |
| COc1ccccc1Cn1c(=O)c2ccccc2n2c(Sc3ncnc4sccc34)nnc12 | inconclusive [inhibitor, single point] |  |
| O=C(Nc1nc(-c2ccc(Cl)s2)cs1)c1cccs1 | active: 10 µM |  |
| Cc1nc(NC(=O)c2ccccc2)sc1-c1csc(NCc2ccco2)n1 | inconclusive [inhibitor, single point] |  |
| COc1ccc(NC(=O)C2CCCN(S(=O)(=O)c3ccc(C)cc3)C2)cc1OC (configuration not stated) | inconclusive [inhibitor, partial curve, poor fit] |  |
| Cc1cc(C)c2nc(N3CCCC(C(=O)N4CCC(C(N)=O)CC4)C3)sc2c1 (configuration not stated) | inactive |  |
| COCCn1c(=O)c(-c2cccc(Cl)c2)nc2cncnc21 | inactive |  |
| CN(Cc1ccco1)c1cc(-c2ccccc2Cl)ncn1 | inactive |  |
| Cc1ccc(Cn2ncc3c(N4CCCC4)ncnc32)cc1 | inconclusive [inhibitor, partial curve] |  |
| CCOC(=O)N1CCN(C(=O)c2ccc3c(=O)n(Cc4ccc(OC)cc4)c(=S)[nH]c3c2)CC1 | active: 31.6 µM |  |
| O=C(O)CCC(=O)N(Cc1cccnc1)Cc1cccc(F)c1 | inactive |  |
| Cc1cc(C)c2c(-n3cccc3)c(C(=O)O)sc2n1 | inactive |  |
| C=CCNc1nc2c(c(=O)[nH]c(=O)n2C)n1CCCCC | inconclusive [inhibitor, single point] |  |
| CC1CCCCN1C(=O)CSc1nc(-c2ccccc2)cc(=O)[nH]1 (configuration not stated) | inconclusive [inhibitor, partial curve, poor fit] |  |
| O=C(Oc1ccccc1)N1CCC[C@@]2(CCN(c3ccncc3)C2)C1 | inactive |  |
| CCOc1ccc(-c2cc3nc(C4CCN(C(=O)OC(C)(C)C)CC4)c(C(=O)O)cn3n2)cc1 | inconclusive [inhibitor, partial curve] |  |
| O=c1c2cnn(-c3ccccc3)c2nnn1Cc1ccccn1 | inconclusive [inhibitor, partial curve] |  |
| Fc1ccc2nc3[nH]c4ccccc4c3nc2c1 | inconclusive [inhibitor, single point] |  |
| NCCCS(=O)(=O)O | inconclusive [inhibitor, single point] |  |
| COCCn1c(Sc2ccccc2)nc2c1c(=O)[nH]c(=O)n2C | inconclusive [inhibitor, partial curve, poor fit] |  |

| SMILES | Potency | activity, negative = inhibition |
| --- | --- | --- |
| CCn1c(SCC(=O)N2CCN(c3ccc(F)cc3)CC2)nc2ccccc2c1=O | inconclusive [inhibitor, partial curve, poor fit] |  |
| CC(C)(C)OC(=O)N[C@@H](Cc1ccccc1)c1nnc(S(=O)(=O)Cc2cccc(F)c2)o1 | inactive |  |
| CCn1nnc(NC(=O)c2ccc(-c3ccc(Cl)cc3)o2)n1 | inactive |  |
| CN(CC(=O)N1CCN(c2ccccn2)CC1)S(=O)(=O)c1ccc2ccccc2c1 | inconclusive [inhibitor, single point] |  |
| CCOc1ccc(-c2nnn(CC(=O)c3ccc4c(c3)OCCO4)n2)cc1OCC | inconclusive [inhibitor, single point] |  |
| Cc1ccc(OC(=O)CCc2c(C)nc3ncnn3c2C)cc1 | inconclusive [inhibitor, full curve, poor fit] |  |
| CCCCCn1c(SCC2CCCO2)nc2cc(C(=O)N3CCC(C(N)=O)CC3)ccc2c1=O (configuration not stated) | inconclusive [inhibitor, partial curve] |  |
| CCN(CC)c1ccc(C(=O)Nc2cccc(F)c2)cc1 | inconclusive [inhibitor, partial curve] |  |
| COc1cccc(-c2cc(C(=O)N3CCCCCC3)no2)c1 | inactive |  |
| COCCn1c(Cc2ccccc2)nnc1SCC(=O)N(C)C | inconclusive [inhibitor, partial curve, poor fit] |  |
| COc1cccc(S(=O)(=O)Nc2ccc3sc(C)nc3c2)c1 | inconclusive [inhibitor, partial curve] |  |
| COc1cccc(NC(=O)c2oc3ccccc3c2NC(C)=O)c1 | inactive |  |
| O=C(O)[C@@H]1[C@@H]2O[C@H]([C@@H](Br)[C@H]2Br)[C@H]1C(=O)O |  | inactive: 14.8% [at 11.5 µM] |
| CCCCN1CSC(=S)N(Cc2ccccc2)C1 |  | inactive: -10.5% [at 11.5 µM] |
| COC(=O)c1sc(NC(=O)c2ccc(Cn3cc(Cl)cn3)o2)c(C#N)c1C | inconclusive [inhibitor, single point] |  |
| CCNc1nc(NCC)nc(OCCOC(=O)c2ccccc2)n1 | inconclusive [inhibitor, partial curve] |  |
| O=C(c1ccncc1)N1CCC2(CC1)CCN(c1cccc(-c3ccccc3)c1)CC2 | inconclusive [inhibitor, single point] |  |
| O=C(Nc1ccc2nc(-c3ccc(Br)o3)[nH]c2c1)c1ccco1 | inactive |  |
| O=C(c1ccccc1)c1coc2ccc(O)c(CN3CCOCC3)c12 | inconclusive [inhibitor, full curve, poor fit] |  |
| CCCn1c(C)nc2c(NCc3ccccc3)nc(C)nc21 | inconclusive [inhibitor, single point] |  |
| COc1ccc2[nH]c(=O)c(CN(C)C(=O)c3ccncc3)cc2c1 | inactive |  |
| Cc1cccc(-c2noc(CCC(=O)Nc3ccccc3)n2)c1 | inconclusive [inhibitor, single point] |  |
| N#Cc1c(C(F)(F)F)cc(-c2ccco2)nc1SCc1ccncc1 | inconclusive [inhibitor, partial curve] |  |
| c1ccc2c(c1)CCCn1nnnc1-2 | inactive |  |
